Results reported in PubChem BioAssay AID504332 (National Center for Advancing Translational Sciences (NCATS), 2011).
About 31,000 (8.9%) of roughly 350,000 compounds were called active. The shares of active, inactive and inconclusive entries below differ from those in the screen. Calls follow the shape of the dose curve; as a rule, active = well fitted inhibition curve with a large enough effect; inconclusive = small, poorly fitted or top-dose-only effect; inactive = no such curve, though single readings can be large or run the other way. Where the call is inconclusive, the potency comes from a doubtful curve fit.

Each molecule was assayed against Histone-lysine N-methyltransferase EHMT2 (Homo sapiens) (UniProt Q96KQ7) (assay: qHTS Assay for Inhibitors of Histone Lysine Methyltransferase G9a). Details: G9a H3K9 monomethylation, AlphaScreen, 2 h; activity, negative = inhibition: at 59 µM (top of the series) unless noted.
Outline: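 G9a (20 nM) was preincubated 15 min with compound, then reacted 2 h at room temperature with 500 nM biotin-H3K9 peptide and 20 µM SAM. Monomethyl-H3K9 detected by AlphaScreen using anti-H3K9me1 antibody.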
% is scaled to controls: 0 for no effect and ±100 for the full control effect; potency is read from the fitted curve at half-maximal effect; tags tell the direction and shape of the fitted curve.
Also: nearly all actives have a fitted effect of over 75% in size.

UniProt Q96KQ7, sequence (Q96KQ7 whole entry, looked up): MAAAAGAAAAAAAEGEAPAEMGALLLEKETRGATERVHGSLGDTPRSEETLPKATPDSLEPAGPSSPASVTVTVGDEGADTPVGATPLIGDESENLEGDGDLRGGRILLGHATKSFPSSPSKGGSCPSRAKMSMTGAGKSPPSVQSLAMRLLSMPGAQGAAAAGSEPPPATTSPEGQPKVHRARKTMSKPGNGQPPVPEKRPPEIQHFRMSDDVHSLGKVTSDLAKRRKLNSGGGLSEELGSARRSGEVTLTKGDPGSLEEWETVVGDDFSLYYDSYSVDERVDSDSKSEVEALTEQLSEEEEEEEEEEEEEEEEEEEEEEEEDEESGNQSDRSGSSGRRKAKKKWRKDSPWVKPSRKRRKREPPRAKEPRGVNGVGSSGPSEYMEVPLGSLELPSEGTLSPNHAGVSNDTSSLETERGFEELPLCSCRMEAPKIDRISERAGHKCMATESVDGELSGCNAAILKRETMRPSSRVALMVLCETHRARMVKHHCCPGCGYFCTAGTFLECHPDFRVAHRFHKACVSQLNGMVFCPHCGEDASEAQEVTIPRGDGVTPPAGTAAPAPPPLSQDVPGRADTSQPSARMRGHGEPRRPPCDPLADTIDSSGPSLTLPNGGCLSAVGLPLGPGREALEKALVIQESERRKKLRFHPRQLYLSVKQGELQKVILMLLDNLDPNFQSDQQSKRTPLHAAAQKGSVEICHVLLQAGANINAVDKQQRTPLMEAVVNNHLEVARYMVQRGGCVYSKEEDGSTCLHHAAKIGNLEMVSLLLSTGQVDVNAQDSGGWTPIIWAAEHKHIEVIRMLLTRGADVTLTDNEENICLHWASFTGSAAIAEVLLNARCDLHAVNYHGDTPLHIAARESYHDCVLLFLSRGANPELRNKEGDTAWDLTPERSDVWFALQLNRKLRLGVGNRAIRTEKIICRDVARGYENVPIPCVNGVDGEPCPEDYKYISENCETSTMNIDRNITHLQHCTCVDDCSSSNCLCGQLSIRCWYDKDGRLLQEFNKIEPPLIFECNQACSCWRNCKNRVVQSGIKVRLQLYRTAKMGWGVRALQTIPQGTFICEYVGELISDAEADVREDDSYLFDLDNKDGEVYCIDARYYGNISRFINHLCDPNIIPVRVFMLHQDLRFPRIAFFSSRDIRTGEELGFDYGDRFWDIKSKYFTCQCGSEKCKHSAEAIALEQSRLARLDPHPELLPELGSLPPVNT

Row | Structure (SMILES) | Potency | activity, negative = inhibition
1 | Cc1csc(C(C)N(C)C(=O)c2ccc(OC3CCN(Cc4ccccn4)CC3)cc2)n1 (stereo not given) | active: 70.8 µM | –
2 | CCOc1ccc(C(=O)CCNC(Cc2cnc[nH]2)C(=O)O)cc1 (stereo not given) | inconclusive: 1.26 µM [inhibitor, full curve, poor fit] | –
3 | CCCOc1cccc(C2C(C(=O)c3ccco3)=C(O)C(=O)N2CCN(CC)CC)c1 (stereo not given) | inconclusive: 89.1 µM [inhibitor, single point] | –
4 | Cc1nn(Cc2ccccc2)c(C)c1C(=O)N1CCN(S(=O)(=O)/C=C/c2ccccc2)CC1 | inconclusive: 0.794 µM [inhibitor, full curve, poor fit] | –
5 | O=C(/C=C/c1cccc([N+](=O)[O-])c1)Nc1ccc(NC(=O)c2cccs2)cc1 | – | inactive: 0.244%
6 | CCn1c(SCC(=O)Nc2cc(Cl)ccc2OC)nnc1C1CC1 | – | inactive: 4.48% [at 102 µM]
7 | Cc1ccc(N(CC(=O)N2CCN(c3ccccc3F)CC2)S(=O)(=O)c2c(C)noc2C)cc1 | – | inactive: 8.15%
8 | Cc1ccc(CCNC(=O)C(NS(=O)(=O)c2ccc3c(c2)oc(=O)n3C)C(C)C)cc1 (stereo not given) | – | inactive: -28.2%
9 | O=C(NCc1ccc(Cl)cc1)c1ccc2c(=O)n(CC3CCCO3)c(=S)[nH]c2c1 (stereo not given) | – | inactive: -3.63% [at 102 µM]
10 | O=C(NCC1CCCO1)c1ccc(C(=O)NCC2CCCO2)cc1 (stereo not given) | inconclusive: 44.7 µM [inhibitor, partial curve, poor fit] | –
11 | COc1ccc(CC(=O)NNC(=O)CSc2nnc(C)n2-c2ccccc2)cc1 | inconclusive: 39.8 µM [inhibitor, single point] | –
12 | COc1ccc(NC(=O)CSc2nncn3c2cc2oc(C)cc23)cc1OC | – | inactive: -4.11%
13 | CC(=O)c1ccc(NC(=O)Cc2cccs2)cc1 | inconclusive: 89.1 µM [inhibitor, single point] | –
14 | O=C(NCCc1ccccc1)c1ccc2c(c1)N(Cc1c(F)cccc1Cl)C(=O)CS2 | – | inactive: -11.5%
15 | COC(=O)/C(=C\c1ccc(O)cc1)c1nc2ccccc2[nH]1 | inconclusive: 89.1 µM [inhibitor, single point] | –
16 | COc1ccc(NC(=O)NNC(=O)c2cc3occc3n2C)c(OC)c1 | inconclusive: 39.8 µM [inhibitor, full curve, poor fit] | –
17 | CN(C(=O)COC(=O)CNC(=O)c1sc2ccccc2c1Cl)c1ccccc1 | inconclusive: 22.4 µM [inhibitor, single point] | –
18 | COc1cccc(-c2csc(N3CCN(C(=O)Nc4ccccc4OC)CC3)n2)c1 | inconclusive: 25.1 µM [inhibitor, single point] | –
19 | COc1ccccc1CNC(=O)CSc1ccc(-c2cccs2)nn1 | – | inactive: -12.8% [at 102 µM]
20 | COc1ccc(-n2c(SCC(=O)Nc3ccc([N+](=O)[O-])cc3OC)nc3ccccc32)cc1 | inconclusive: 0.708 µM [inhibitor, full curve] | –
21 | O=C(CN1CCN(S(=O)(=O)c2cc(C(F)(F)F)ccc2Cl)CC1)N1CCc2ccccc2C1 | inconclusive: 3.98 µM [inhibitor, single point] | –
22 | Cc1ccc2nc(N3CCN(Cc4nnnn4C4CCCC4)CC3)c(C#N)cc2c1 | inconclusive: 39.8 µM [inhibitor, single point] | –
23 | CC(Sc1nnc(NC2CCCCC2)s1)C(=O)Nc1ccc2c(c1)C(=O)c1ccccc1C2=O (stereo not given) | active: 3.55 µM | –
24 | O=C(CCN1C(=O)COc2ccccc21)NCCCN1CCc2ccccc2C1 | inconclusive: 89.1 µM [inhibitor, partial curve, poor fit] | –

Row | Structure (SMILES) | Potency | activity, negative = inhibition
25 | CCC(C(=O)NC1C(=O)N2C(C(=O)O)=C(CSc3nnc(C)s3)CSC12)c1ccccc1 (stereo not given) | inconclusive: 2.82 µM [inhibitor, partial curve, poor fit] | –
26 | O=C(CCN1C(=O)c2ccccc2C1=O)NC(=S)Nc1ccccc1Cl | inconclusive: 89.1 µM [inhibitor, single point] | –
27 | CCc1ccc(NC(=O)CSc2nccn2-c2ccc(OC)cc2)cc1 | active: 15.8 µM | –
28 | O=C(O)COc1ccc(-c2nccc(-c3cccs3)n2)cc1 | inconclusive: 44.7 µM [inhibitor, partial curve] | –
29 | CCOc1ccc(C2/C(=C(/O)c3ccc(Cl)cc3)C(=O)C(=O)N2CCCN(C)C)cc1OC (stereo not given) | inconclusive: 89.1 µM [inhibitor, single point] | –
30 | O=C(CCCSc1nc2ccccc2s1)NCc1ccco1 | active: 79.4 µM | –
31 | c1coc(-c2nc3ccccc3nc2-c2ccco2)c1 | active: 8.91 µM | –
32 | CC(C)Sc1nc(O)c(Cc2ccccc2)c(=O)[nH]1 | inconclusive: 20 µM [inhibitor, single point] | –
33 | N/C(Cc1ccc([N+](=O)[O-])cc1)=N\OC(=O)c1ccc([N+](=O)[O-])cc1 | active: 8.91 µM | –
34 | CCN(CC)CCC(=O)Nc1ccc2c(c1)N(C(=O)CN(CC)CC)c1ccccc1CC2 | inconclusive: 89.1 µM [inhibitor, single point] | –
35 | CCCCC[C@]12Cc3cc(OC)c(OC)cc3C(O1)c1c(cc(C)n(-c3ccccc3)c1=O)O2 | – | inactive: 7.81% [at 2.33 µM]
36 | COc1ccccc1OCCC(=O)OCC(=O)Nc1cc(S(=O)(=O)N(C)C)ccc1Cl | – | inactive: -7.06% [at 102 µM]
37 | Cc1cc(C)nc(SCc2nnc(SCC(=O)Nc3ccccc3C)n2Cc2ccco2)n1 | inconclusive: 50.1 µM [inhibitor, partial curve, poor fit] | –
38 | Fc1cc2[nH]c(=S)[nH]c2cc1Cl | active: 6.31 µM | –
39 | Cc1nc(-c2cccc(NC(=O)Nc3ccc([N+](=O)[O-])cc3)c2)no1 | – | inactive: -35.6%
40 | Cc1ccccc1SCC(=O)NNC(=O)c1ccncc1 | inconclusive: 35.5 µM [inhibitor, single point] | –
41 | Cc1ccc(S(=O)(=O)Nc2cc3c4c(c2)C(C)C(=O)N4CCC3)cc1 (stereo not given) | inconclusive: 56.2 µM [inhibitor, single point] | –
42 | O=C1OCc2cc(-n3cccc3)ccc21 | inconclusive: 79.4 µM [inhibitor, single point] | –
43 | O=C(O)C(c1ccccc1)N1CCCCC1 (stereo not given) | inconclusive: 79.4 µM [inhibitor, single point] | –
44 | Cc1cc(/C=N/n2cnnc2)c(O)c([N+](=O)[O-])c1 | – | inactive: -0.485%
45 | CC(C)c1nc(N2CCN(C(=O)c3ccco3)CC2)c(C#N)c2c1COC(C)(C)C2 | inconclusive: 79.4 µM [inhibitor, single point] | –
46 | COCCSc1nnc(NS(=O)(=O)c2ccccc2)s1 | active: 28.2 µM | –
47 | Cc1cccc(N2CC(C(=O)Nc3ccc(S(=O)(=O)Nc4nccs4)cc3)CC2=O)c1C (stereo not given) | inconclusive: 89.1 µM [inhibitor, single point] | –
48 | COc1c(-c2coc3cc4c(cc3c2=O)CC(O)C(C)(C)O4)ccc2c1C=CC(C)(C)O2 (stereo not given) | – | inconclusive: -53.8% [inhibitor] [at 2.33 µM]

Row | Structure (SMILES) | Potency | activity, negative = inhibition
49 | NC(N)=NS(=O)(=O)c1ccc(N=C2C(=O)Nc3ccccc32)cc1 | – | inactive: -40.9% [at 2.33 µM]
50 | COc1ccc(C2=NOC(C(=O)N3CCCc4ccccc43)C2)cc1 (stereo not given) | – | inactive: 7.41% [at 102 µM]
51 | COc1ccc(/C=C/C(=O)Nc2ccccc2Cl)cc1S(=O)(=O)N1CCOCC1 | – | inactive: -4.4% [at 102 µM]
52 | CN(C(=O)COC(=O)c1n[nH]c2ccccc12)C1CCS(=O)(=O)C1 (stereo not given) | – | inactive: 8.81%
53 | Cc1cccc(OC(=O)n2c(=S)oc3cc(Cl)ccc32)c1 | active: 2.82 µM | –
54 | O=C(c1cnn2c(C(F)(F)F)cc(-c3ccc(Br)cc3)nc12)N1CCOCC1 | – | inactive: -3.09%
55 | CC(C)n1cc(C(=O)N2CCCC(N3CCN(c4cccc(Cl)c4)CC3)C2)cn1 (stereo not given) | inconclusive: 4.47 µM [inhibitor, partial curve, poor fit] | –
56 | CCn1nc(NS(=O)(=O)c2ccccc2[N+](=O)[O-])c2cc3cccc(C)c3nc21 | inconclusive: 20 µM [inhibitor, full curve, poor fit] | –
57 | COc1cc(C(F)(F)F)ccc1C(=O)NCCc1ccco1 | inconclusive: 89.1 µM [inhibitor, single point] | –
58 | O=[N+]([O-])c1cc(F)c(N2CCCCC2)cc1N1CCOCC1 | inconclusive: 50.1 µM [inhibitor, partial curve] | –
59 | O=C(NCCO)c1cc2ccccc2c(=O)s1 | inconclusive: 100 µM [inhibitor, single point] | –
60 | O=C(Cn1cnc([N+](=O)[O-])c1)Nc1ccc(F)c(Cl)c1 | active: 50.1 µM | –
61 | CC(C)[C@H](CO)Nc1nc(Nc2ccc(Cl)c(C(=O)O)c2)c2ncn(C(C)C)c2n1 | – | inconclusive: -65.6% [inhibitor]
62 | CN(C)CCCCOc1ccc(F)cc1 | active: 8.91 µM | –
63 | O=C(O)c1ccc(Sc2ccccn2)c([N+](=O)[O-])c1 | inconclusive: 3.55 µM [inhibitor, partial curve] | –
64 | O=c1c2ccccc2cnn1Cc1n[nH]c(=S)n1-c1cc(Cl)cc(Cl)c1 | active: 0.398 µM | –
65 | O=C1COc2ccc(C(=O)CSc3nnnn3-c3ccccc3)cc2N1 | inconclusive: 79.4 µM [inhibitor, partial curve, poor fit] | –
66 | OC(COc1ccccc1)CN1CCN(C(c2ccccc2)c2ccccc2)CC1 (stereo not given) | – | inactive: 11% [at 102 µM]
67 | Cc1ccc(C(C(=O)NC2CCCC2)N2CCCCC2)cc1 (stereo not given) | inconclusive: 39.8 µM [inhibitor, full curve] | –
68 | COc1ccccc1-c1noc(CCC(=O)Nc2cc(C(F)(F)F)ccc2Cl)n1 | inconclusive: 3.16 µM [inhibitor, partial curve, poor fit] | –
69 | COc1cc(OC)cc(-n2nnnc2SCC(=O)Nc2nc3c(s2)CCCC3)c1 | inconclusive: 5.01 µM [inhibitor, single point] | –
70 | CC(C)OCC(O)CN1CCN(CC(O)COc2ccc3c(c2)OCO3)CC1 (stereo not given) | – | inactive: -25.8%
